Some of the results follow. The protein was read in a cell extract, so binding may be indirect.
Target: PU.1 (endogenous, THP-1 nuclear extract) (UniProt P17947)
Experiment: nuclear extract protein-binding microarray (nextPBM)
Settings: 20 mM HEPES pH 7.9, 100 mM NaCl, 1 mM DTT, 0.2 mg/mL BSA, 0.02% Triton X-100, 2% milk, 0.4 mg/mL salmon testes DNA; 1 h; temperature not stated; high values mean tight binding; double strand, one strand shown; sequences stand for … in GCCTAGCAC…GTGCTAGGTCTTGATTCGCTTGACGCTGCTG

**Q.** For GGGATGGGGAAGTGTCATAC, which binding signal is on record?
**A.** The binding signal was 4.66 z-score.

**Q.** How did the binding signal turn out when TGTTTGAGGAACTGAAATAG was run?
**A.** The binding signal was 3.82 z-score.

**Q.** For ATGGGGAGGAAGTGGTAAGA, which binding signal is on record?
**A.** Its binding signal is 2.95 z-score.

**Q.** For TAGAATAGGAAGTGAAGTAC, which binding signal is on record?
**A.** The binding signal was 3.18 z-score.

**Q.** AAATAGAGGAAATGCTTCAC was tested. Which binding signal did it give?
**A.** Its binding signal is 4.07 z-score.

**Q.** How did the binding signal turn out when CGGAACAGGAAGTGTGGTAC was run?
**A.** The binding signal was 5.5 z-score.

**Q.** For CGAAAGGGGAAGTCCTAAAC, which binding signal is on record?
**A.** The binding signal was 6.64 z-score.

**Q.** With GACGCTGGGAAGTACTGTGA as the sequence, how does the binding signal read?
**A.** The binding signal was 0.664 z-score.

**Q.** With AGAAAGGGGAAGTCCAATAG as the sequence, how does the binding signal read?
**A.** The binding signal was 7 z-score.

**Q.** How did the binding signal turn out when CAAAAGAGGAACTCTGAAAG was run?
**A.** Its binding signal is 6.45 z-score.

**Q.** How did the binding signal turn out when AGAAAGAGGAAGTGTTTATA was run?
**A.** The binding signal was 7.67 z-score.

**Q.** How did the binding signal turn out when GAAAACAGGAGGTCCCATAG was run?
**A.** The binding signal was -0.016 z-score.

**Q.** With ATTATAAGGAAGTCAAACTG as the sequence, how does the binding signal read?
**A.** Its binding signal is 3.86 z-score.

**Q.** Which binding signal does the source give for CAGAATAGGAAGTGGAGAAT here?
**A.** Its binding signal is 3.41 z-score.

Target: T1, FLI1 (endogenous, THP-1 nuclear extract) (UniProt Q01543)
T1 sequence: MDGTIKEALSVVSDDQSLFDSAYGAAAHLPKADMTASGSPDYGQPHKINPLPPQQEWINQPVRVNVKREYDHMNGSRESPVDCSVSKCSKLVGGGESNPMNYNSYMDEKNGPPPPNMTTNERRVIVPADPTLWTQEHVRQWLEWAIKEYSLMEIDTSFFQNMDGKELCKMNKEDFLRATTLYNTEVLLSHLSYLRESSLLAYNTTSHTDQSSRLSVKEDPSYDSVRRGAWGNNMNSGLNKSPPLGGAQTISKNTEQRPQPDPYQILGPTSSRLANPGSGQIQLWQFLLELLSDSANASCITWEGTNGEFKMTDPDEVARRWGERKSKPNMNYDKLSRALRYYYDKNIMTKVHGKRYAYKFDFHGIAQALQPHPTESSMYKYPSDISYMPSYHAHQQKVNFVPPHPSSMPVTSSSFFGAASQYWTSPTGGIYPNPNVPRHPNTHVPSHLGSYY
Experiment: as above
Settings: 20 mM HEPES pH 7.9, 100 mM NaCl, 1 mM DTT, 0.2 mg/mL BSA, 0.02% Triton X-100, 2% milk, 0.4 mg/mL salmon testes DNA; 1 h; temperature not stated; high values mean tight binding; double strand, one strand shown; sequences stand for … in GCCTAGCAC…GTGCTAGGTCTTGATTCGCTTGACGCTGCTG

**Q.** How did the binding signal turn out when TTCATGAGGAAGTGGCTTAG was run?
**A.** Its binding signal is 2.35 z-score.

**Q.** Which binding signal does the source give for CAAAGCGGGAAGTGGGTGGG here?
**A.** Its binding signal is 1.77 z-score.

**Q.** CAAATGAGGAACTGATGTGG was tested. Which binding signal did it give?
**A.** The binding signal was 1.82 z-score.

**Q.** Which binding signal does the source give for GGAAGGAGGAAGTCAGCTTG here?
**A.** Its binding signal is 2.79 z-score.

**Q.** AAAAAGGGGAAGTACTGCGA was tested. Which binding signal did it give?
**A.** Its binding signal is 3.47 z-score.

**Q.** How did the binding signal turn out when AAAAAAAGGAACTGATTCTT was run?
**A.** Its binding signal is 1.66 z-score.

**Q.** Which binding signal does the source give for ACAAAAAGGAACTGTGACCC here?
**A.** The binding signal was 0.514 z-score.

**Q.** Which binding signal does the source give for AAAAAACGGAACTGCAGAAG here?
**A.** Its binding signal is 2.02 z-score.

**Q.** How did the binding signal turn out when AGGGAGAGGAAGTGAGTCGT was run?
**A.** The binding signal was 2.89 z-score.

**Q.** CTAATGAGGAACTGGCCCGA was tested. Which binding signal did it give?
**A.** The binding signal was 0.93 z-score.

**Q.** Which binding signal does the source give for ACAAAAAGGAACTGTTCCCC here?
**A.** The binding signal was 1.14 z-score.

**Q.** How did the binding signal turn out when AAAATAGGGAAGTGGGAAAC was run?
**A.** Its binding signal is 3.38 z-score.

**Q.** Which binding signal does the source give for CAAAAGAGGAAGTGGCATAT here?
**A.** The binding signal was 4.19 z-score.

**Q.** With GATAAGAGCAAGTCCTCTGT as the sequence, how does the binding signal read?
**A.** The binding signal was -0.156 z-score.

**Q.** For GAAAAGAGGAAGTCTGAAAA, which binding signal is on record?
**A.** Its binding signal is 3.49 z-score.

**Q.** With CGAAAAGGGAAGTGCTAAAC as the sequence, how does the binding signal read?
**A.** Its binding signal is 2.32 z-score.

**Q.** Which binding signal does the source give for AAATAAAGGAAGTGGATGAT here?
**A.** Its binding signal is 2.84 z-score.

**Q.** With GCTTTAGGGAAGTGGGGCAG as the sequence, how does the binding signal read?
**A.** The binding signal was 1.39 z-score.

**Q.** ACAAACGGGAAGTACTGTGT was tested. Which binding signal did it give?
**A.** The binding signal was 3.07 z-score.

**Q.** How did the binding signal turn out when GAAAAGAGGAAGTTGCTTAC was run?
**A.** Its binding signal is 4.2 z-score.

**Q.** How did the binding signal turn out when AGGAAGGGGAAGTGGCTACC was run?
**A.** Its binding signal is 3.17 z-score.

**Q.** How did the binding signal turn out when CAGGAGAGGAACTGAGAATG was run?
**A.** Its binding signal is 0.996 z-score.

**Q.** GAAAAGAGGAAGTCAAATTT was tested. Which binding signal did it give?
**A.** The binding signal was 4.66 z-score.

**Q.** AGATAGCGGAAGTGTTGAGC was tested. Which binding signal did it give?
**A.** The binding signal was 4.32 z-score.

**Q.** CAAAACGGGAAGTGGATGCT was tested. Which binding signal did it give?
**A.** The binding signal was 3.36 z-score.

**Q.** TGAAAGAGGAACTCAGTCAT was tested. Which binding signal did it give?
**A.** Its binding signal is 1.68 z-score.

**Q.** How did the binding signal turn out when GGGATGGGGAAGTGTCATAC was run?
**A.** The binding signal was 1.69 z-score.

**Q.** How did the binding signal turn out when TGTTTGAGGAACTGAAATAG was run?
**A.** Its binding signal is 1.12 z-score.

**Q.** For ATGGGGAGGAAGTGGTAAGA, which binding signal is on record?
**A.** The binding signal was 2.84 z-score.

**Q.** With TAGAATAGGAAGTGAAGTAC as the sequence, how does the binding signal read?
**A.** The binding signal was 2.34 z-score.

**Q.** With AAATAGAGGAAATGCTTCAC as the sequence, how does the binding signal read?
**A.** Its binding signal is 2.35 z-score.

**Q.** With CGGAACAGGAAGTGTGGTAC as the sequence, how does the binding signal read?
**A.** Its binding signal is 5.3 z-score.

**Q.** Which binding signal does the source give for CGAAAGGGGAAGTCCTAAAC here?
**A.** Its binding signal is 3.21 z-score.

**Q.** With GACGCTGGGAAGTACTGTGA as the sequence, how does the binding signal read?
**A.** The binding signal was 0.527 z-score.

**Q.** Which binding signal does the source give for AGAAAGGGGAAGTCCAATAG here?
**A.** The binding signal was 2.88 z-score.

**Q.** Which binding signal does the source give for CAAAAGAGGAACTCTGAAAG here?
**A.** The binding signal was 1.93 z-score.

**Q.** Which binding signal does the source give for AGAAAGAGGAAGTGTTTATA here?
**A.** The binding signal was 4.1 z-score.

**Q.** GAAAACAGGAGGTCCCATAG was tested. Which binding signal did it give?
**A.** Its binding signal is -0.168 z-score.

**Q.** With ATTATAAGGAAGTCAAACTG as the sequence, how does the binding signal read?
**A.** The binding signal was 1.71 z-score.

**Q.** CAGAATAGGAAGTGGAGAAT was tested. Which binding signal did it give?
**A.** Its binding signal is 2.34 z-score.
